In assay [1] the target is T1, full-length Mps1, Flag-tagged or LAP-tagged (human) (UniProt P33981).
T1 sequence: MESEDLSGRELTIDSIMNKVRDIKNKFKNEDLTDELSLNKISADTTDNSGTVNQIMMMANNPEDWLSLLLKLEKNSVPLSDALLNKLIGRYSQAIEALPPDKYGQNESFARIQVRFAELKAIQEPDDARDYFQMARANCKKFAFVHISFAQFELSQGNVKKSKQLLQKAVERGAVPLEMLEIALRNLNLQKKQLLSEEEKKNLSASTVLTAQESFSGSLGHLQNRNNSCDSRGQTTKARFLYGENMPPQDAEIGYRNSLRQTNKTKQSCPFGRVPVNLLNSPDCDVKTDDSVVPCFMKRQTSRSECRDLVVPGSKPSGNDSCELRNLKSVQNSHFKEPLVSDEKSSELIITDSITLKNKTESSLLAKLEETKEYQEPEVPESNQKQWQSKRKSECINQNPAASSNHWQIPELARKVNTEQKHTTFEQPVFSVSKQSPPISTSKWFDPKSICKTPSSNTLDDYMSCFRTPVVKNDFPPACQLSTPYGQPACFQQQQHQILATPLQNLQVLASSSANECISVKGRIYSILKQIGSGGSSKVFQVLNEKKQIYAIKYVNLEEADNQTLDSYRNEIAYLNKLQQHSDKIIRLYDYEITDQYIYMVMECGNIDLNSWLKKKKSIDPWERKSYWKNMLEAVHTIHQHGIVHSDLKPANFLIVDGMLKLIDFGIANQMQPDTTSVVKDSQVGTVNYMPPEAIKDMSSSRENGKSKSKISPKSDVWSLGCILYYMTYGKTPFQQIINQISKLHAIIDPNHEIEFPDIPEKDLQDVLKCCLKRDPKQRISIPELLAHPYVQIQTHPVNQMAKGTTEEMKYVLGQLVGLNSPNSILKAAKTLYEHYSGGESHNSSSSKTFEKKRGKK
Nature of the assay: co-IP; 293T cells co-transfected with Flag-Mps1 and LAP-Mps1 or GFP-ZW10; one group treated with reversine for 2 h; anti-Flag M2 beads; anti-GFP and anti-Flag blots.

In assay [2] the target is Mps1^WT, mCherry-LacI-tagged (bait) or GFP-tagged (prey) (human) (UniProt P33981). Kind of assay: LacI/LacO-based in vivo interaction assay (recruitment to a LacO array); U2OS-LacO cells co-expressing mCherry-LacI-Mps1 baits and GFP-Mps1 preys; fixed 24 h after transfection; GFP signal at the LacO array.
For assay [3], the target named is Mps1^N300 (amino acids 1–300), mCherry-LacI-tagged (bait) or GFP-tagged (prey) (human) (UniProt P33981). The assay is described as above.
Assay [4] concerns the target Mps1^N300 (amino acids 1–300), YFPN- or YFPC-tagged for BiFC (human) (UniProt P33981). Nature of the assay: split reporter; BiFC with YFPN- and YFPC-tagged Mps1 fragments co-expressed in cells; with or without reversine (Supplementary Figure S4G and H).
The target in assay [5] is Mps1^PK (protein kinase domain, amino acids 516–792), YFPN- or YFPC-tagged for BiFC (human) (UniProt P33981). The description is as above.
The target of assay [6] is Mps1^C342 (amino acids 516–857), YFPN- or YFPC-tagged for BiFC (human) (UniProt P33981). The assay is described as above.

The text below walks through data of PMC7493027, “Mps1 dimerization and multisite interactions with Ndc80 complex enable responsive spindle assembly checkpoint signaling” (Journal of Molecular Cell Biology, 2020).

Results are given in words; binding and its absence hold for the method and conditions named. For some of these results: Binding seen in cells or lysates may run through a third protein. Some binding calls cover weakened binding; strength is not graded here. Where a sequence is shown, tags or fusion partners need not be part of it.

B1: full-length Mps1, Flag-tagged or LAP-tagged (protein, UniProt P33981 1-857)
chain: MESEDLSGRELTIDSIMNKVRDIKNKFKNEDLTDELSLNKISADTTDNSGTVNQIMMMANNPEDWLSLLLKLEKNSVPLSDALLNKLIGRYSQAIEALPPDKYGQNESFARIQVRFAELKAIQEPDDARDYFQMARANCKKFAFVHISFAQFELSQGNVKKSKQLLQKAVERGAVPLEMLEIALRNLNLQKKQLLSEEEKKNLSASTVLTAQESFSGSLGHLQNRNNSCDSRGQTTKARFLYGENMPPQDAEIGYRNSLRQTNKTKQSCPFGRVPVNLLNSPDCDVKTDDSVVPCFMKRQTSRSECRDLVVPGSKPSGNDSCELRNLKSVQNSHFKEPLVSDEKSSELIITDSITLKNKTESSLLAKLEETKEYQEPEVPESNQKQWQSKRKSECINQNPAASSNHWQIPELARKVNTEQKHTTFEQPVFSVSKQSPPISTSKWFDPKSICKTPSSNTLDDYMSCFRTPVVKNDFPPACQLSTPYGQPACFQQQQHQILATPLQNLQVLASSSANECISVKGRIYSILKQIGSGGSSKVFQVLNEKKQIYAIKYVNLEEADNQTLDSYRNEIAYLNKLQQHSDKIIRLYDYEITDQYIYMVMECGNIDLNSWLKKKKSIDPWERKSYWKNMLEAVHTIHQHGIVHSDLKPANFLIVDGMLKLIDFGIANQMQPDTTSVVKDSQVGTVNYMPPEAIKDMSSSRENGKSKSKISPKSDVWSLGCILYYMTYGKTPFQQIINQISKLHAIIDPNHEIEFPDIPEKDLQDVLKCCLKRDPKQRISIPELLAHPYVQIQTHPVNQMAKGTTEEMKYVLGQLVGLNSPNSILKAAKTLYEHYSGGESHNSSSSKTFEKKRGKK
B1: the binding entry in assay [1] is “binds”.

B2: Mps1^WT, mCherry-LacI-tagged (bait) or GFP-tagged (prey) (protein, UniProt P33981 1-857)
chain: MESEDLSGRELTIDSIMNKVRDIKNKFKNEDLTDELSLNKISADTTDNSGTVNQIMMMANNPEDWLSLLLKLEKNSVPLSDALLNKLIGRYSQAIEALPPDKYGQNESFARIQVRFAELKAIQEPDDARDYFQMARANCKKFAFVHISFAQFELSQGNVKKSKQLLQKAVERGAVPLEMLEIALRNLNLQKKQLLSEEEKKNLSASTVLTAQESFSGSLGHLQNRNNSCDSRGQTTKARFLYGENMPPQDAEIGYRNSLRQTNKTKQSCPFGRVPVNLLNSPDCDVKTDDSVVPCFMKRQTSRSECRDLVVPGSKPSGNDSCELRNLKSVQNSHFKEPLVSDEKSSELIITDSITLKNKTESSLLAKLEETKEYQEPEVPESNQKQWQSKRKSECINQNPAASSNHWQIPELARKVNTEQKHTTFEQPVFSVSKQSPPISTSKWFDPKSICKTPSSNTLDDYMSCFRTPVVKNDFPPACQLSTPYGQPACFQQQQHQILATPLQNLQVLASSSANECISVKGRIYSILKQIGSGGSSKVFQVLNEKKQIYAIKYVNLEEADNQTLDSYRNEIAYLNKLQQHSDKIIRLYDYEITDQYIYMVMECGNIDLNSWLKKKKSIDPWERKSYWKNMLEAVHTIHQHGIVHSDLKPANFLIVDGMLKLIDFGIANQMQPDTTSVVKDSQVGTVNYMPPEAIKDMSSSRENGKSKSKISPKSDVWSLGCILYYMTYGKTPFQQIINQISKLHAIIDPNHEIEFPDIPEKDLQDVLKCCLKRDPKQRISIPELLAHPYVQIQTHPVNQMAKGTTEEMKYVLGQLVGLNSPNSILKAAKTLYEHYSGGESHNSSSSKTFEKKRGKK
Take B2: the binding entry in assay [2] is “binds”.

B3: Mps1^N300 (amino acids 1–300), mCherry-LacI-tagged (bait) or GFP-tagged (prey) (domain or fragment, UniProt P33981 1-300)
chain: MESEDLSGRELTIDSIMNKVRDIKNKFKNEDLTDELSLNKISADTTDNSGTVNQIMMMANNPEDWLSLLLKLEKNSVPLSDALLNKLIGRYSQAIEALPPDKYGQNESFARIQVRFAELKAIQEPDDARDYFQMARANCKKFAFVHISFAQFELSQGNVKKSKQLLQKAVERGAVPLEMLEIALRNLNLQKKQLLSEEEKKNLSASTVLTAQESFSGSLGHLQNRNNSCDSRGQTTKARFLYGENMPPQDAEIGYRNSLRQTNKTKQSCPFGRVPVNLLNSPDCDVKTDDSVVPCFMKRQ
On to B3, for which, in assay [3], the binding entry is listed as “binds weakly”.

B4: Mps1^N300 (amino acids 1–300), YFPN- or YFPC-tagged for BiFC (domain or fragment, UniProt P33981 1-300)
chain: MESEDLSGRELTIDSIMNKVRDIKNKFKNEDLTDELSLNKISADTTDNSGTVNQIMMMANNPEDWLSLLLKLEKNSVPLSDALLNKLIGRYSQAIEALPPDKYGQNESFARIQVRFAELKAIQEPDDARDYFQMARANCKKFAFVHISFAQFELSQGNVKKSKQLLQKAVERGAVPLEMLEIALRNLNLQKKQLLSEEEKKNLSASTVLTAQESFSGSLGHLQNRNNSCDSRGQTTKARFLYGENMPPQDAEIGYRNSLRQTNKTKQSCPFGRVPVNLLNSPDCDVKTDDSVVPCFMKRQ
In the case of B4, the binding result in assay [4] was “binds weakly”.

B5: Mps1^PK (protein kinase domain, amino acids 516–792), YFPN- or YFPC-tagged for BiFC (domain or fragment, UniProt P33981 516-792)
chain: ECISVKGRIYSILKQIGSGGSSKVFQVLNEKKQIYAIKYVNLEEADNQTLDSYRNEIAYLNKLQQHSDKIIRLYDYEITDQYIYMVMECGNIDLNSWLKKKKSIDPWERKSYWKNMLEAVHTIHQHGIVHSDLKPANFLIVDGMLKLIDFGIANQMQPDTTSVVKDSQVGTVNYMPPEAIKDMSSSRENGKSKSKISPKSDVWSLGCILYYMTYGKTPFQQIINQISKLHAIIDPNHEIEFPDIPEKDLQDVLKCCLKRDPKQRISIPELLAHPYVQ
As to B5, in assay [5], the binding result is “binds”.

B6: GFP-ZW10 (protein, UniProt O43264 1-779)
chain: MASFVTEVLAHSGRLEKEDLGTRISRLTRRVEEIKGEVCNMISKKYSEFLPSMQSAQGLITQVDKLSEDIDLLKSRIESEVRRDLHVSTGEFTDLKQQLERDSVVLSLLKQLQEFSTAIEEYNCALTEKKYVTGAQRLEEAQKCLKLLKSRKCFDLKILKSLSMELTIQKQNILYHLGEEWQKLIVWKFPPSKDTSSLESYLQTELHLYTEQSHKEEKTPMPPISSVLLAFSVLGELHSKLKSFGQMLLKYILRPLASCPSLHAVIESQPNIVIIRFESIMTNLEYPSPSEVFTKIRLVLEVLQKQLLDLPLDTDLENEKTSTVPLAEMLGDMIWEDLSECLIKNCLVYSIPTNSSKLQQYEEIIQSTEEFENALKEMRFLKGDTTDLLKYARNINSHFANKKCQDVIVAARNLMTSEIHNTVKIIPDSKINVPELPTPDEDNKLEVQKVSNTQYHEVMNLEPENTLDQHSFSLPTCRISESVKKLMELAYQTLLEATTSSDQCAVQLFYSVRNIFHLFHDVVPTYHKENLQKLPQLAAIHHNNCMYIAHHLLTLGHQFRLRLAPILCDGTATFVDLVPGFRRLGTECFLAQMRAQKGELLERLSSARNFSNMDDEENYSAASKAVRQVLHQLKRLGIVWQDVLPVNIYCKAMGTLLNTAISEVIGKITALEDISTEDGDRLYSLCKTVMDEGPQVFAPLSEESKNKKYQEEVPVYVPKWMPFKELMMMLQASLQEIGDRWADGKGPLAAAFSSSEVKALIRALFQNTERRAAALAKIK
Take B6: in assay [1], the binding entry is given as “no binding”.

B7: Mps1^C342 (amino acids 516–857), YFPN- or YFPC-tagged for BiFC (domain or fragment, UniProt P33981 516-857)
chain: ECISVKGRIYSILKQIGSGGSSKVFQVLNEKKQIYAIKYVNLEEADNQTLDSYRNEIAYLNKLQQHSDKIIRLYDYEITDQYIYMVMECGNIDLNSWLKKKKSIDPWERKSYWKNMLEAVHTIHQHGIVHSDLKPANFLIVDGMLKLIDFGIANQMQPDTTSVVKDSQVGTVNYMPPEAIKDMSSSRENGKSKSKISPKSDVWSLGCILYYMTYGKTPFQQIINQISKLHAIIDPNHEIEFPDIPEKDLQDVLKCCLKRDPKQRISIPELLAHPYVQIQTHPVNQMAKGTTEEMKYVLGQLVGLNSPNSILKAAKTLYEHYSGGESHNSSSSKTFEKKRGKK
For B7, in assay [6], the binding entry is “binds”.
